From patent US20240247080A1, “GLP1/GIP/NPY2 RECEPTOR TRIPLE AGONISTS” (Boehringer Ingelheim International GmbH, priority 2022, published 2024)
Read-outs that look alike come from different tables or passages of the source. Part of at least one peptide drawing is inferred or uncertain, most often the ends. At least one structure is not confirmed: it was looked up by name or label, or the drawing left a doubt. Starred links: 1 amine or outer side, 2 acyl side, 3 side chain; linkers in the order of their positions; H or OH if unused. Non-standard residues stand in square brackets, D forms with d. Groups on a side chain read outwards from the residue. No end group written: not given here. *: point of attachment. C20 diacid = O=C(O)CCCCCCCCCCCCCCCCCCC(=O)*; γGlu = O=C(O)[C@H](CCC(=O)[*:2])N[*:1]; εLys = N[C@@H](CCCCN[*:1])C(=O)[*:2]; AEEA = NCCOCCOCC(=O)O; Aib = CC(C)(N)C(=O)O

How the values were obtained:
Format in all cases: cell-based
hGLP1R = biological target: T1, hGLP1R (Homo sapiens, UniProt P43220); assay: hGLP1R CreLuc reporter gene assay in 0.5% and 100% plasma
T1 construct: expressed in transfected cells; host or cells: HEK-293 cells carrying a CRE-luciferase reporter gene
Text: (§1) Example 1: hGLPR/hGIPR/hNPY2R CreLuc Assay in 0.5% and 100% Plasma
(§2) CHO and HEK-293 recombinant cell lines express a luciferase reporter gene under control of the cAMP responsive element (CRE). As a second recombinant protein the GLP-1 and NPY2 receptors were expressed in the reporter gene HEK cells, and the GIP receptor was expressed in the reporter gene CHO cells, respectively. Stimulation of these recombinant cells with an agonist leads to an increase of intracellular cAMP levels. In the presence of cAMP, the transcription factor CRE binding protein (CREB) binds to the CRE and to the CREB binding protein (CBP), which leads to transcription of the luciferase reporter gene. Peptides upon serial-dilution in 100% DMSO were transferred into 384-well assay plates with 5 μl pre-dispensed assay buffer (1×HBSS, 20 mM HEPES, pH7.4 supplemented with 0.5% human plasma) using acoustic dispensing on a Labcyte ECHO. Cryo-preserved transgenic reporter gene cells were thawed in assay buffer. 20 μl (10.000 cells/well) were added to the plate with the peptides and incubated for 4 hours at 37° C. in a humidified incubator. Following incubation, assay plates are equilibrated to room temperature, followed by addition of 25 μl of Bright-GIo™ Luciferase reagent, incubation at room temperature for 10 minutes and analysis of luminescence (Envision Reader). Concentration response evaluation of compounds was performed with 8 concentrations of peptides (covering four decades). EC50 values were calculated by non-linear regression using sigmoid concentration-response with variable slope. The same assays were run in the presence of 100% plasma with no additional buffer constituents.

hGIPR = biological target: T2, hGIPR (Homo sapiens, UniProt P48546); assay: hGIPR CreLuc reporter gene assay in 0.5% and 100% plasma
T2 construct: expressed in transfected cells; host or cells: CHO cells carrying a CRE-luciferase reporter gene
T2 sequence (P48546 22-466): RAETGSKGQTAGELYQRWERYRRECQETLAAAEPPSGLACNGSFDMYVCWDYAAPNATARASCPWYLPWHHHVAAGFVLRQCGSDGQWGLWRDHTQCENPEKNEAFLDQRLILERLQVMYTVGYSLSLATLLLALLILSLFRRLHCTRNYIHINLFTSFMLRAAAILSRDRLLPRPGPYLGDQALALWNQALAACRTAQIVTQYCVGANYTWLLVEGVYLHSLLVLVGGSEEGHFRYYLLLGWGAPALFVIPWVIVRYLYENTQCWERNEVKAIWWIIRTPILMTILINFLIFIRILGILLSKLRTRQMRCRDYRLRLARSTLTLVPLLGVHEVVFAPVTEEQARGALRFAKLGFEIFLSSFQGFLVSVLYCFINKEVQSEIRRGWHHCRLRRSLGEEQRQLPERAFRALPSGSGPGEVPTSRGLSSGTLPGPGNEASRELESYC
Text: as §1, §2

hNPY2R = biological target: T3, hNPY2R (Homo sapiens, UniProt P49146); assay: hNPY2R CreLuc reporter gene assay in 0.5% and 100% plasma
T3 construct: expressed in transfected cells; host or cells: HEK-293 cells carrying a CRE-luciferase reporter gene
T3 sequence (P49146 1-381): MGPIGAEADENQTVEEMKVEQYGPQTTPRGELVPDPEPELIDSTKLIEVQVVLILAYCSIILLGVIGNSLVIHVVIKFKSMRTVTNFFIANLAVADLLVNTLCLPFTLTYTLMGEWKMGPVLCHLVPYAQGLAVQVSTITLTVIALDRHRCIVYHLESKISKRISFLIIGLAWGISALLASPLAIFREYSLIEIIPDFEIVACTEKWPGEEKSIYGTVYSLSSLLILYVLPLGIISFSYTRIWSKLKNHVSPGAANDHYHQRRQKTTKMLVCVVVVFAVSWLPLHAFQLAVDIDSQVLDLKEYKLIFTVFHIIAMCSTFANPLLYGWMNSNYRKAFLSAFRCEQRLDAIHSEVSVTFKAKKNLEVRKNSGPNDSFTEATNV
Text: as §1, §2

[1] = 0.5% human plasma, read-out: hGLP1R 0.5% hP
[2] = 0.5% human plasma, read-out: hGIPR 0.5% hP
[3] = 100% human plasma, read-out: hGIPR 100% hP
[4] = 0.5% human plasma, read-out: hNPY2R 0.5% hP
[5] = 100% human plasma, read-out: hNPY2R 100% hP
[6] = 100% human plasma, read-out: hGLP1R 100% hP

T1 sequence (P43220 24-463): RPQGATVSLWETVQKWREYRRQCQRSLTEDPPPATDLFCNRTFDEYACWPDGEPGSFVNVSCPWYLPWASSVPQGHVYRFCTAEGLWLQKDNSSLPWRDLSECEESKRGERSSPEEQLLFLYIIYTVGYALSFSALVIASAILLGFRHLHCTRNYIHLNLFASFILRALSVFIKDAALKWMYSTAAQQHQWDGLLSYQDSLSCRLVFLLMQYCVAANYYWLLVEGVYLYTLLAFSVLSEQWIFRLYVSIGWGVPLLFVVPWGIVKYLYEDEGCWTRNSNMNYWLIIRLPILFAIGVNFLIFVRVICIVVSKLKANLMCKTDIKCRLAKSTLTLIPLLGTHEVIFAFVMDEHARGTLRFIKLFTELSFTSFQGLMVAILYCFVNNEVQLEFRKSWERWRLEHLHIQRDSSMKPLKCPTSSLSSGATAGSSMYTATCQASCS

Compound	EC50 (hGLP1R; [1]) [nM]	EC50 (hGIPR; [2]) [nM]	EC50 (hGIPR; [3]) [nM]	EC50 (hNPY2R; [4]) [nM]	EC50 (hNPY2R; [5]) [nM]	EC50 (hGLP1R; [6]) [nM]
Y[Aib]EGTFTSDYSI[Aib]LEKQAQ[Aib]AFVQWLIK([εLys-γGlu-γGlu-γGlu-γGlu-γGlu-γGlu-C20 diacid])GGPSSGESLRHYYNWLTRQRY-NH2 [Compound 35, Y-Aib-E-G-T-F-T-S-D-Y-S-I-Aib-L-E-K-Q-A-Q-Aib-A-F-V-Q-W-L-I-K(1,3)-GGPSSGESLRHYYNWLTRQRY-NH2.C20DA-gGlu-gGlu-gGlu-gGlu-gGlu-gGlu-eK]	0.07	0.06	0.96	11.6	29.3	
CC[C@H](C)[C@H](NC(=O)[C@H](CC(C)C)NC(=O)[C@H](Cc1c[nH]c2ccccc12)NC(=O)[C@H](CCC(=O)O)NC(=O)[C@@H](NC(=O)[C@H](Cc1ccccc1)NC(=O)[C@H](C)NC(=O)C(C)(C)NC(=O)[C@H](CCC(N)=O)NC(=O)[C@H](C)NC(=O)[C@H](CCC(N)=O)NC(=O)[C@H](CCCCN)NC(=O)[C@H](CCC(=O)O)NC(=O)[C@H](CC(C)C)NC(=O)C(C)(C)NC(=O)[C@@H](NC(=O)[C@H](CO)NC(=O)[C@H](Cc1ccc(O)cc1)NC(=O)[C@H](CC(=O)O)NC(=O)[C@H](CO)NC(=O)[C@@H](NC(=O)[C@H](Cc1ccccc1)NC(=O)[C@@H](NC(=O)CNC(=O)[C@H](CCC(=O)O)NC(=O)C(C)(C)NC(=O)[C@@H](N)Cc1ccc(O)cc1)[C@@H](C)O)[C@@H](C)O)[C@@H](C)CC)C(C)C)C(=O)N[C@@H](CCCCNC(=O)[C@@H](N)CCCCNC(=O)[C@H](CCC(=O)O)NC(=O)CC[C@H](NC(=O)CC[C@H](NC(=O)CC[C@H](NC(=O)CC[C@H](NC(=O)CC[C@H](NC(=O)CCCCCCCCCCCCCCCCCCC(=O)O)C(=O)O)C(=O)O)C(=O)O)C(=O)O)C(=O)O)C(=O)NCC(=O)NCC(=O)N1CCC[C@H]1C(=O)N[C@@H](CO)C(=O)N[C@@H](CO)C(=O)NCC(=O)N[C@@H](C)C(=O)N[C@@H](CO)C(=O)NC(C)(C)C(=O)N[C@@H](CCCNC(=N)N)C(=O)N[C@@H](Cc1c[nH]cn1)C(=O)N[C@@H](Cc1ccc(O)cc1)C(=O)N[C@@H](Cc1ccc(O)cc1)C(=O)N[C@@H](CC(N)=O)C(=O)N[C@@H](CCCNC(=N)N)C(=O)NC(C)(C)C(=O)N[C@H](C(=O)N[C@@H](CCCNC(=N)N)C(=O)N[C@@H](CCC(N)=O)C(=O)N[C@@H](CCCNC(=N)N)C(=O)N[C@@H](Cc1ccc(O)cc1)C(N)=O)[C@@H](C)O [Compound 13, Y-Aib-E-G-T-F-T-S-D-Y-S-I-Aib-L-E-K-Q-A-Q-Aib-A-F-V-E-W-L-I-K(1,3)-G-G-P-S-S-G-A-S-Aib-R-H-Y-Y-N-R-Aib-T-R-Q-R-Y-NH2.C20DA-gGlu-gGlu-gGlu-gGlu-gGlu-Glu-eLys(1,2)]	0.05	0.09	0.77		31.5	
Y[Aib]EGTFTSDYSI[Aib]LEKQAQ[Aib]AFVEWLIK([εLys-Glu-γGlu-γGlu-γGlu-γGlu-C20 diacid])GGPSYYASLRHYYNWLTRQRY-NH2 [Compound 203, Y-Aib-E-G-T-F-T-S-D-Y-S-I-Aib-L-E-K-Q-A-Q-Aib-A-F-V-E-W-L-I-K(1,3)-GGPSYYASLRHYYNWLTRQRY-NH2.C20DA-gGlu-gGlu-gGlu-gGlu-Glu-eLys(1,2)]	0.33	0.5	12.4		54.1	
Y[Aib]EGTFTSDYSI[Aib]LEKQAQ[Aib]AFVQWLIK([AEEA-AEEA-γGlu-γGlu-Glu-γGlu-C20 diacid])GGPSEPASLRHYYNWLTRQRY-NH2 [Compound 165, Y-Aib-E-G-T-F-T-S-D-Y-S-I-Aib-L-E-K-Q-A-Q-Aib-A-F-V-Q-W-L-I-K(1,3)-GGPSEPASLRHYYNWLTRQRY-NH2.C20DA-gGlu-Glu-gGlu-gGlu-OEG-OEG(1,2)]	0.13	0.33			36	
Y[Aib]EGTFTSDYSI[Aib]LEKQAQ[Aib]AFVEWLIK([εLys-γGlu-γGlu-γGlu-γGlu-γGlu-γGlu-C20 diacid])GGPSSPES[Aib]RHYYNWLTRQRY-NH2 [Compound 10, Y-Aib-E-G-T-F-T-S-D-Y-S-I-Aib-L-E-K-Q-A-Q-Aib-A-F-V-E-W-L-I-K(1,3)-G-G-P-S-S-P-E-S-Aib-R-H-Y-Y-N-W-L-T-R-Q-R-Y-NH2.C20DA-gGlu-gGlu-gGlu-gGlu-gGlu-gGlu-eK]	0.11	0.07	1.25	18.2	42.2	2.59
CC[C@H](C)[C@H](NC(=O)[C@H](CC(C)C)NC(=O)[C@H](Cc1c[nH]c2ccccc12)NC(=O)[C@H](CCC(=O)O)NC(=O)[C@@H](NC(=O)[C@H](Cc1ccccc1)NC(=O)[C@H](C)NC(=O)C(C)(C)NC(=O)[C@H](CCC(N)=O)NC(=O)[C@H](C)NC(=O)[C@H](CCC(N)=O)NC(=O)[C@H](CCCCN)NC(=O)[C@H](CCC(=O)O)NC(=O)[C@H](CC(C)C)NC(=O)C(C)(C)NC(=O)[C@@H](NC(=O)[C@H](CO)NC(=O)[C@H](Cc1ccc(O)cc1)NC(=O)[C@H](CC(=O)O)NC(=O)[C@H](CO)NC(=O)[C@@H](NC(=O)[C@H](Cc1ccccc1)NC(=O)[C@@H](NC(=O)CNC(=O)[C@H](CCC(=O)O)NC(=O)C(C)(C)NC(=O)[C@@H](N)Cc1ccc(O)cc1)[C@@H](C)O)[C@@H](C)O)[C@@H](C)CC)C(C)C)C(=O)N[C@@H](CCCCNC(=O)[C@@H](N)CCCCNC(=O)[C@H](CCC(=O)O)NC(=O)CC[C@H](NC(=O)CC[C@H](NC(=O)CC[C@H](NC(=O)CC[C@H](NC(=O)CC[C@H](NC(=O)CCCCCCCCCCCCCCCCCCC(=O)O)C(=O)O)C(=O)O)C(=O)O)C(=O)O)C(=O)O)C(=O)NCC(=O)NCC(=O)N1CCC[C@H]1C(=O)N[C@@H](CO)C(=O)N[C@@H](CCC(=O)O)C(=O)NCC(=O)N[C@@H](C)C(=O)N[C@@H](CO)C(=O)N[C@@H](CC(C)C)C(=O)N[C@@H](CCCNC(=N)N)C(=O)N[C@@H](Cc1c[nH]cn1)C(=O)N[C@@H](Cc1ccc(O)cc1)C(=O)N[C@@H](Cc1ccc(O)cc1)C(=O)N[C@@H](CC(N)=O)C(=O)N[C@@H](Cc1c[nH]c2ccccc12)C(=O)N[C@@H](CC(C)C)C(=O)N[C@H](C(=O)N[C@@H](CCCNC(=N)N)C(=O)N[C@@H](CCC(N)=O)C(=O)N[C@@H](CCCNC(=N)N)C(=O)N[C@@H](Cc1ccc(O)cc1)C(N)=O)[C@@H](C)O [Compound 286, Y-Aib-E-G-T-F-T-S-D-Y-S-I-Aib-L-E-K-Q-A-Q-Aib-A-F-V-E-W-L-I-K(1,3)-GGPSEGASLRHYYNWLTRQRY-NH2.C20DA-gGlu-gGlu-gGlu-gGlu-gGlu-Glu-eLys(1,2)]	0.27	0.42	2.03		43.4	
Y[Aib]EGTFTSDYSI[Aib]LEKQAQ[Aib]AFVEWLIK([εLys-γGlu-Glu-γGlu-γGlu-γGlu-C20 diacid])GGPSEGASLRHYYNWLTRQRY-NH2 [Compound 290, Y-Aib-E-G-T-F-T-S-D-Y-S-I-Aib-L-E-K-Q-A-Q-Aib-A-F-V-E-W-L-I-K(1,3)-GGPSEGASLRHYYNWLTRQRY-NH2.C20DA-gGlu-gGlu-gGlu-Glu-gGlu-eLys(1,2)]	0.13	0.89	1.18		46.3	2.87
